# Measurements: patent publication US11149300B1, “Methods of treating gastrointestinal malignancies” (Cedars-Sinai Medical Center, priority 2018, dated 2021)
# Read-outs that look alike come from different tables or passages of the source.
# Tests used:
# [1] = cited from earlier work
# ferret emesis model = assay type: in vivo; settings: 10 mg/kg, no emesis
# [2] = 300 mg/kg IP, day 1; cited from earlier work
smiles,measurement,setting,value
C[C@]1(c2nc3c(C(N)=O)cccc3[nH]2)CCCN1 [veliparib],emesis,[1]; 10 mg/kg gavage,No emesis
same,mean plasma concentration,[1]; 10 mg/kg gavage,3800 ± 110 ng/mL
same,emesis,[1]; 20 mg/kg gavage,significant emesis
same,multiple of predicted Cmax,ferret emesis model,18 fold
same,animals with tonic-clonic seizures/death,[2],approximately 50%
